The values that follow come from PubChem BioAssay AID1745853 (National Center for Advancing Translational Sciences (NCATS), 2022).

Common to all, as to assay: Primary Screen for Target Class Profiling of Small Molecule Inhibitors of Methyltransferases
Assay [1] concerns the target Glycine N-methyltransferase (Homo sapiens) (UniProt Q14749). Conditions: purified enzyme, MTase-Glo SAH luminescence; measured here: GNMT inhibition; at 40 µM; stronger effect = lower value. In outline:
(§1)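 Each enzyme was assayed with SAM and its substrate. SAH formation detected by MTase-Glo luminescence; single-point 40 uM screen[…].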

Assay [2] has as its target Guanidinoacetate N-methyltransferase (Homo sapiens) (UniProt Q14353). Conditions: purified enzyme, MTase-Glo SAH luminescence; measured here: GAMT inhibition; at 40 µM; stronger effect = lower value. The essentials: as §1
For assay [3], the target named is Histamine N-methyltransferase (Homo sapiens) (UniProt P50135). Conditions: purified enzyme, MTase-Glo SAH luminescence; measured here: HNMT inhibition; at 40 µM; stronger effect = lower value. The essentials:
as §1

In assay [4] the target is Nicotinamide N-methyltransferase (Homo sapiens) (UniProt P40261). The conditions noted are these: purified enzyme, MTase-Glo SAH luminescence; measured here: NNMT inhibition; at 40 µM; stronger effect = lower value. In outline:
as §1

Assay [5] concerns the target Phenylethanolamine N-methyltransferase (Homo sapiens) (UniProt P11086). The conditions noted are these: purified enzyme, MTase-Glo SAH luminescence; measured here: PNMT inhibition; at 40 µM; stronger effect = lower value. The essentials:
as §1

Molecules are shown by their SMILES. Some of the results follow. Shown are side measurements of this screen, not its main read-out; they come without a call.
On the % scale 0 is the no-effect control and ±100 the full control effect.

Regarding `Cc1ccc2c(c1)c(=O)[nH]c1c(C(=O)NCc3ccc4c(c3)OCO4)sc(=S)n12`, the activity change, negative = inhibition was -35.9% in assay [1]; 0% in assay [2]; 6.24% in assay [3]; -55.1% in assay [4]; -19.3% in assay [5].
Take `C=CCn1c(=O)c2ccc(C(=O)NC(C)CC)cc2n2c(=O)n(CC(=O)Nc3ccc(C)cc3)nc12` (configuration not stated): the activity change, negative = inhibition was 1.3% in assay [1]; 0.522% in assay [2]; 2.2% in assay [3]; -2.7% in assay [4]; -1.29% in assay [5].
In the same order, the values of `Nc1nc2c(ncn2[C@@H]2O[C@H](CO)[C@@H](O)[C@H]2O)c(=O)[nH]1` are 4.41%, 5.21%, 6.48%, -7.38% and 1.37%.
For `CCCn1c(=O)c2ccc(C(=O)NC(C)C)cc2n2c(=O)n(CC(=O)NC3CCCCC3)nc12`, in that order: 7.68%, 1.3%, 6.37%, 8.26% and 5.44%.
For `CC1CC(=O)C2C(O)(C1)CC(O)C13OC1c1c(O)cccc1C(=O)C23O` (configuration not stated), in that order: 0%, 1.47%, 3.17%, -8.6% and 4.79%.
`COc1ccc(-c2cc3n(n2)CC(C)(C(=O)NCc2ccccc2)N(Cc2ccco2)C3=O)cc1` (configuration not stated): the activity change, negative = inhibition is 4.58% in assay [1]; 0% in assay [2]; 11.7% in assay [3]; 7.57% in assay [4]; 1.42% in assay [5].
For the compound `O=C1c2ccccc2C(=O)c2c1cccc2S(=O)(=O)Nc1ccc(Cl)cc1`, the activity change, negative = inhibition is -26.6% in assay [1]; -7.7% in assay [2]; -10.7% in assay [3]; -15.3% in assay [4]; -66.9% in assay [5].
On to `CC[C@@H](C)[C@H](N)C(=O)N1Cc2ccccc2C1`, for which the activity change, negative = inhibition in assay [1] was -1.03%; in assay [2], -11%; in assay [3] it was -6.84%; in assay [4], -20.6%; in assay [5], -13.3%.
For `CCN(CC)c1ccc(N2C(=O)c3ccc(-c4ccco4)n3CC2(C)C(=O)NCc2ccccc2)c(C)c1` (configuration not stated), in that order: -11.9%, -2.49%, -2.08%, -2.74% and -5.76%.
For the compound `CCC(C)C1NC(=O)C2C(C)CCN2C(=O)C(CC(O)CO)OC(=O)CCNC(=O)C(C)N(C)C(=O)C(C(C)C)N(C)C1=O` (configuration not stated), the activity change, negative = inhibition in assay [1] was 4.78%; in assay [2], 5.61%; in assay [3] it was 7.46%; in assay [4], -8.72%; in assay [5], -1.92%.
With `O=C(CCC1CCN(S(=O)(=O)c2ccccc2)CC1)NCCCN1CCCC1=O`, the activity change, negative = inhibition in assay [1] is -6.98%; in assay [2], -1.51%; in assay [3], -8.17%; in assay [4], -8.71%; in assay [5], -8.27%.
For the compound `COc1ccc(CC(=O)Nc2ccc3n(c2=O)C[C@H]2C[C@@H]3CN(C(=O)c3ccc(-c4ccccc4)cc3)C2)cc1`, the activity change, negative = inhibition in assay [1] is -9.45%; in assay [2] it was -5.7%; in assay [3], -8.53%; in assay [4], -21.8%; in assay [5], -6.56%.
Take `O=C1NCCCCCCN(C(=O)CCc2ccccc2)[C@H]2CCCC[C@@H]12`: the activity change, negative = inhibition is -1.33% in assay [1]; -1.9% in assay [2]; 0.868% in assay [3]; -1.57% in assay [4]; -3.58% in assay [5].
With `CC(C)OCCCNC(=O)CCc1nnc2ccc(NCc3ccc4c(c3)OCO4)nn12`, the activity change, negative = inhibition in assay [1] is -5.73%; in assay [2] it was 4.89%; in assay [3] it was -3.48%; in assay [4] it was -1.56%; in assay [5], -0.59%.
In the case of `COc1cccc(Cn2nc3n(CC(C)C)c(=O)c4ccc(C(=O)NCC(C)C)cc4n3c2=O)c1`, the activity change, negative = inhibition in assay [1] stood at 1.51%; in assay [2], 0%; in assay [3] it was 2.59%; in assay [4] it was 2.68%; in assay [5], 3.57%.
For `CC(C)=CCC/C(C)=C/CO[C@@H]1O[C@H](CO)[C@@H](O)[C@H](O)[C@H]1O`, in that order: 1.4%, -1.61%, 4.49%, -11.8% and -7.86%.
In the same order, the values of `COc1cccc(N2C(=O)c3cc4sccc4n3CC2(C)C(=O)NC2CCCCCCC2)c1` (configuration not stated) are -5.5%, 2.16%, 0.243%, -2.46% and -4.88%.
On to `COc1ccc(CCCN2C(=O)O[C@@H]3CN(c4nc(C)cc(C)n4)C[C@@H]32)cc1`, for which the activity change, negative = inhibition in assay [1] is -8.28%; in assay [2], -10.6%; in assay [3], -7.76%; in assay [4], -22.2%; in assay [5], -12.2%.
For `CCc1ccc(C2c3cccn3-c3sc4c(c3CN2C(=O)Nc2cc(OC)ccc2OC)CCCC4)cc1` (configuration not stated), in that order: -3.88%, 7.15%, 8.33%, 0.313% and -4.87%.
In the same order, the values of `CC(C)(C)n1cnc2cccnc21` are -1.43%, -3.74%, -0.831%, -1.55% and -2.59%.
In the case of `Cc1cc2c(cc3n2CC(C)(C(=O)NC2CCCCCCC2)N(Cc2ccccc2Cl)C3=O)o1` (configuration not stated), the activity change, negative = inhibition was -4.17% in assay [1]; -9.97% in assay [2]; 6.3% in assay [3]; -13.3% in assay [4]; -7.32% in assay [5].
Regarding `CCCN1C(=O)c2c(C(=O)OC)ncn2CC1(C)C(=O)NCc1ccccc1` (configuration not stated), the activity change, negative = inhibition amounted to 3.41% in assay [1]; 0% in assay [2]; 13.6% in assay [3]; 9.18% in assay [4]; 5.8% in assay [5].
For `COCCCNC(=O)CCc1nnc2n(Cc3ccccc3)c(=O)c3ccccc3n12`, the activity change, negative = inhibition in assay [1] was determined as 1.07%; in assay [2] it was 0%; in assay [3], 7.95%; in assay [4] it was 11%; in assay [5], 4.28%.
In the same order, the values of `Cc1ccc(N2C(=O)c3cc4occc4n3CC2(C)C(=O)NC2CCCCCC2)cc1` (configuration not stated) are -6.7%, 1.07%, -4.76%, 2.09% and -6.5%.
In the same order, the values of `CCCSCCCN1C(=O)c2cc3oc(C)cc3n2CC1(C)C(=O)NC1CCCCC1` (configuration not stated) are -1.29%, 4.61%, -4.79%, 0.755% and -3.68%.
`NC(=O)c1cccc2[nH]c(-c3ccc([C@H]4CCCN4)cc3F)nc12`: the values for the activity change, negative = inhibition in assay [1] and in assay [3] were -9.02% and -76.4%, respectively.
Consider `Fc1ccccc1CN1CCNc2cnc(OCc3cccnc3)cc2C1`, for which the activity change, negative = inhibition in assay [1] is -15.7%; in assay [2], -11.2%; in assay [3], -27.8%; in assay [4], -19.1%; in assay [5] it was -23.1%.
For `C=CC(C)(C)C12Nc3c(ccc4c3OC(C)(C)C=C4)C1(O)CC1C(=O)N3CCCC3C(=O)N12` (configuration not stated), in that order: 4.39%, 4.99%, 3.02%, -7.94% and 2.91%.
Take `Cn1c(=O)c2ccc(C(=O)NC3CCCCC3)cc2n2c(=O)n(CC(=O)Nc3ccccc3Cl)nc12`: the activity change, negative = inhibition was 0.598% in assay [1]; -0.699% in assay [2]; 1.5% in assay [3]; -5.3% in assay [4]; 1.81% in assay [5].
